Test results: PubChem BioAssay AID1508623 (National Center for Advancing Translational Sciences (NCATS), 2021)
About 450 (0.94%) of roughly 48,000 compounds were called active. Roughly 19% stayed inconclusive and do not appear here. Calls follow the shape of the dose curve; as a rule, active = well fitted inhibition curve with a large enough effect; inconclusive = small, poorly fitted or top-dose-only effect; inactive = no such curve, though single readings can be large or run the other way. This is one part of the list.

Test: Primary qHTS for Identification of Small Molecule Inhibitors of Huntingtin Promoter Activity; also: nearly all actives have a fitted effect of over 50% in size
Settings: HEK293 HTT promoter firefly luciferase reporter (activity 0% = vehicle and -100% = no light), 24 h; series mostly up to 57.5 µM; activity change, negative = inhibition: at the top concentration
Summary of the method: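 Firefly luciferase readout (Dual-Glo, 10 min RT) after 24 h, 37 °C compound exposure (final up to 57.5 uM) of HEK293 reporter cells cultured 24 h beforehand; PTC124 at 50 uM final as control inhibitor; activity scaled vehicle 0%, zero RLU -100%.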

Activity change, negative = inhibition, inactive:
COCCCNC(=O)c1ccc(Cn2c(=O)c3ccccc3n(Cc3ccc(Cl)cc3)c2=O)cc1 -1.53%, COc1ccc(CC(=O)NCC(c2cccs2)S(=O)(=O)c2ccc(F)cc2)cc1 (stereo not drawn) -19.6%, Cc1ccc(C(=O)N(Cc2ccco2)c2ccccn2)cc1 17.5%, COc1cc(NC(=O)c2nn(C)c3c2COc2ccccc2-3)cc(OC)c1OC -11.2%, CCOc1ccccc1NC(=O)C1=C(C)Nc2ncnn2C1c1ccco1 (stereo not drawn) -8.65%, COc1ccc(CCNC(=O)c2ccc(Cn3c(SCc4ccccc4)nc4cccnc43)cc2)cc1 -29.6%, CC(C)c1cc(-c2nc(-c3ccc(Cl)cc3)no2)n[nH]1 8.11%, O=C(CCn1c(=O)c2ccccc2n(CC(=O)Nc2ccc(F)cc2)c1=O)NCCc1ccccc1 -4.04%, Cc1cccc(NC(=O)Cn2c(=O)n(Cc3ccccc3)c(=O)c3oc4ccccc4c32)c1C -6.76%, CCc1ccc(C2CC(=O)Nc3c2c(=O)nc2c(C)cccn32)cc1 (stereo not drawn) -7.37%, CC(C)c1ccc(NC(=O)c2ccc(CN3CC(=O)N4CCCCC4C3=O)cc2)cc1 (stereo not drawn) -32.8%, COc1ccccc1C(=O)Nc1ccc(C(=O)OCc2cc(=O)n3c4c(sc3n2)CCCC4)cc1 -19.2%, CCOc1ccc(C2C(C(N)=O)=C(C)Nc3nc(SCc4ccccc4F)nn32)cc1 (stereo not drawn) -1.14%, COc1ccccc1NC(=O)c1cnn(-c2ccccc2)c1-n1cccc1 -1.07%, O=C(O)CCn1ccc2cc(S(=O)(=O)N3CCCCCC3)ccc21 -12.7%, CSc1ccc(CCNC(=O)c2csc3c2CCCCC3)cc1 -24%, Cc1cccn2c(=O)c(C(=O)N3CCN(c4ccccc4)CC3)cnc12 36.4%, Cc1ccc(C(=O)c2c(N)c(C(=O)Nc3cccc(C(F)(F)F)c3)c3ccccn23)cc1 -1.84%, CCCCOc1ccc(C(=O)Nc2cccc(-c3nc4ccccc4o3)c2C)cc1 -4.1%, Cc1nc2nc(NCc3ccc(Br)cc3)[nH]n2c(=O)c1Cc1ccccc1 -12.2%, CCCCC(CC)CNC(=O)CCCCCn1c(=O)[nH]c2ccsc2c1=O (stereo not drawn) -29.1%, O=C(c1ccc2c(c1)N(Cc1ccc(Cl)cc1)C(=O)c1ccccc1S2(=O)=O)N1CCOCC1 -9.92%, CCc1ccc(-n2c(=O)c3ccccc3n(Cc3ccccc3C#N)c2=O)cc1 -9.83%, COc1cccc(C2C(C(N)=O)=C(C)Nc3ncnn32)c1 (stereo not drawn) 4.63%, O=C(CSc1nc2c(oc3ccccc32)c(=O)n1-c1ccccc1)Nc1ccc(F)c(Cl)c1 -16.9%, COc1ccc(OC)c(NC(=O)C2=C(C)C(=O)OC23CCN(C(C)C)CC3)c1 -11.9%, CCOC(=O)c1c(NC(C)=O)c2c3c(sc2n1Cc1cc(C)ccc1C)CCCC3 -21.4%, CCOc1ccccc1NC(=O)Cn1c(=O)n(Cc2ccco2)c(=O)c2sc3ccccc3c21 -20.1%, COc1ccccc1NS(=O)(=O)c1cn(C)c(C)n1 -6.86%, COc1ccc(N2CC(NC(=O)COc3cccc(C)c3)CC2=O)cc1OC (stereo not drawn) -9.03%, Cc1ccc(C)c(N2CCN(C(=O)Cn3nc(C)c4sc5ccccc5c4c3=O)CC2)c1 -9.06%, Cc1c(C(C)C)c(=O)n(-c2ccccc2)n1C 3.15%, CCC(O)c1nc2ccccc2n1Cc1cc(C)ccc1C (stereo not drawn) -12.2%, CCOc1ccc(NC(=O)CSc2nc3ccsc3c(=O)n2CCC(C)C)cc1 3.43%, Cc1ccc(NC(=O)C2CCN(S(=O)(=O)c3ccc4c(c3)CCCC(=O)N4)CC2)cc1N(C)C -35.3%, COc1ccc(OC)c(NC(=O)C(C)n2c(=O)c(-c3ccccc3NC(C)=O)nc3ccccc32)c1 (stereo not drawn) -12.8%, COc1ccc(-c2nc(CSCC(=O)NCCC(C)C)c(C)o2)cc1OC -25.2%, O=C(CC1Sc2ccccc2NC1=O)Nc1cccc(C(F)(F)F)c1 (stereo not drawn) -31.4%, COc1ccc(OC)c(CNC(=O)NCc2noc3ccc(C)cc23)c1 -13%, CCN1C(=O)c2ccccc2S(=O)(=O)c2ccc(C(=O)NCc3ccccc3OC)cc21 -14.3%, O=C(CSc1cn(CC(=O)N2CCCCC2)c2ccccc12)NCc1ccccc1Cl -21.2%, CC(C)c1ccc(NC(=O)c2cc3c(=O)[nH]c4ccccc4c3n2C)cc1 1.24%, Cc1ccc(-n2nc(C)c3c(C(=O)NCCc4ccc(S(N)(=O)=O)cc4)cc(C)nc32)cc1 -16.9%, O=C(CN1C(=O)c2cccnc2Sc2ccccc21)Nc1cc(F)ccc1F -5.89%, CCCCN(C)CCCNC(=O)c1cn(CC)c2ccc(S(=O)(=O)N3CCc4ccccc4C3)cc2c1=O -3.09%, COc1ccccc1CNC(=O)c1cc(S(=O)(=O)N2CCCC(C)C2)cn1C (stereo not drawn) -29%, Cc1ccc(-n2nc(C)c3c(C(F)(F)F)cc(-c4cccnc4)nc32)cc1C -10.9%, Cc1ccc2oc(-c3ccc(NC(=O)c4oc5ccc(Cl)cc5c4C)cc3)nc2c1 5.76%, Cc1cccc(NC(=O)Cn2c(SCC(=O)NCc3ccccc3)nc3ccccc32)c1C -21.9%, O=C(c1cnn(-c2ccc(F)cc2)c1-n1cccc1)N1CCN(c2ccccc2)CC1 -12.6%, CCOc1ccc(-c2cn3nc(CC(C)C)sc3n2)cc1 52.8%, CCOC(=O)c1ccc(N=C2SC(C(=O)Nc3ccccc3)CC(=O)N2C)cc1 (stereo not drawn) -21.8%, COc1ccc(CNC(=O)C2(c3cccs3)CCOCC2)cc1 -3.12%, O=C(CCCCCCC(=O)Nc1cccnc1)NO 182%, CCN(CC)S(=O)(=O)c1cccc(C(=O)Nc2ccccc2C(=O)Nc2ccc(OC)cc2)c1 2.09%, Cc1ccccc1-c1nc(CN2CCC(C(=O)NC(C)C)CC2)c(C)o1 -3.17%, CCCCc1nn2c(=O)cc(COC(=O)CNC(=O)COc3ccc(C)cc3)nc2s1 -26.7%, CCOc1ccc(NC(=O)c2c(NCc3cccs3)sc3c2CCC(C)C3)cc1 (stereo not drawn) -23.4%, CCOC(=O)c1cc2c(=O)n3ccccc3nc2n(C(C)C)c1=NC(=O)c1c(-c2c(F)cccc2Cl)noc1C -23.7%, COc1ccc2c(c1)CC(C(=O)Nc1cc(OC)c(OC)c(OC)c1)CO2 (stereo not drawn) -20.7%, CN(C)c1ccc(C(=O)NCc2ccc3c(c2)CCN3C(=O)c2ccc(Cl)cc2)cc1 -7.83%, COc1ccc(Cl)cc1NC(=O)CCn1nc(C)cc1C 0.204%, COc1ccc(C(=O)NCc2ccc3c(c2)CCN3C(=O)c2ccc(Cl)cc2)c(OC)c1 -16%, COc1cc(OC)cc(C(=O)Nc2cccc(-c3cn4ccsc4n3)c2)c1 17.3%, CC(C)OCCCn1c(SCc2ccccc2Cl)nc2c(sc3ccccc32)c1=O 1.71%, CCOc1ccc(NC(=O)CSc2cn(CC(=O)N3CCOCC3)c3ccccc23)cc1 6.22%, CCC1CN(C(=O)N2CCC(C(=O)NCCC3=CCCCC3)CC2)c2ccccc2O1 (stereo not drawn) 12.5%, CCC(Cc1ccccc1)NC(=O)c1cccc(Nc2nc3ccccc3nc2-n2nc(C)cc2C)c1 (stereo not drawn) -8.37%, CCC1CCCCN1C(=O)Cn1c(=O)n(-c2ccc(Cl)c(Cl)c2)c(=O)c2c(C)c(C(=O)N(C)C)sc21 (stereo not drawn) -2.14%, COc1ccc(CCNC(=O)c2cc(=O)[nH]c3ccc(S(=O)(=O)N4CCCCC4)cc23)cc1OC -4.24%, CCOc1ccc(NC(=O)C2CCC(CNS(=O)(=O)c3ccc4c(c3)CCCC(=O)N4)CC2)cc1 (stereo not drawn) -20.1%, CC(=O)Nc1c(C)nn(-c2ccccc2)c1N1CCC(C(=O)NCc2cccc(F)c2)CC1 -17.5%, Cn1nc(C(=O)NCc2ccccc2Cl)c2c1-c1ccccc1SC2 -6.48%, CCN(CC)c1nn2c(=O)c(C(=O)NCc3ccccc3Br)cnc2s1 5.32%, O=C(NCCc1ccc(Cl)cc1)c1cc2c(s1)-c1ccccc1OC2 -12.5%, CCOc1ccc(NC(=O)N2CCN(C(=O)c3nsc4ccccc34)CC2)cc1 -13.9%, Cc1ccc(NC(=O)CSc2nccn2-c2ccccc2)cc1 20.6%, O=C(COc1ccccc1Cl)Nc1ccc2nc(SCC(=O)N3CCOCC3)sc2c1 -24.6%, O=S(=O)(c1ccc2nc(Nc3ccc(Br)cc3F)ccc2c1)N1CCCCC1 -12.2%, CCSc1nc2sc3c(c2c(=O)n1-c1ccc(C)c(Cl)c1)CCN(C(C)=O)C3 -25.8%, Cc1ccccc1Cn1cc(S(=O)(=O)c2ccc(F)cc2)c(=O)c2cc3c(cc21)OCO3 -9.68%, Cc1cc(=O)n(Cc2ccc(Br)cc2F)c2c1c(C)nn2-c1ccccc1 0%, Cc1ccc(NC(=O)Cn2c(=O)n(CCCCC(=O)NCCc3ccccc3)c(=O)c3ccccc32)cc1 -6.73%, O=C(CCNS(=O)(=O)c1ccc2c(c1)CCCC(=O)N2)NCc1ccc(Cl)cc1 -29%, Cc1cc(Cl)ccc1OCCSc1nnc(-c2cccs2)o1 -20% [at 11.5 µM], CCc1nccn1S(=O)(=O)c1cc(Br)ccc1Br -1.7%, COc1ccc(C)cc1NC(=O)CN(C)S(=O)(=O)c1ccc2[nH]c(=O)oc2c1 -12.6%, COC(=O)c1ccc2c(c1)N(CC(=O)Nc1ccc(C)cc1Cl)C(=O)c1ccccc1S2 -17.5%, COC(=O)c1sccc1S(=O)(=O)N(CC(=O)Nc1cc(F)ccc1F)c1ccc(C)c(C)c1 -28.3%, CCc1ccc(-c2[nH]nc3nc(-c4cc(OC)ccc4OC)cc(C(=O)O)c23)cc1 -8.62%, CCn1c(C)c(C)c2cc(C(=O)NCCc3cc(OC)ccc3OC)ccc21 -11.1%, Cc1oc2ncn(CC(C)C)c(=O)c2c1C(=O)NCCCN(C)Cc1ccccc1 1.07%, O=C(Nc1cccc(C(F)(F)F)c1)C1CCCN(S(=O)(=O)c2cccc3nonc23)C1 (stereo not drawn) -6.04%, Cc1oc2c(C)c3oc(=O)c(CCC(=O)N4CCCCC4)c(C)c3cc2c1C -13.3%, COc1cc(-c2nnc(SCCOc3ccccc3)o2)cc(OC)c1OC 1.16%, COc1cc(C(C)C)c(Oc2cnc(NC(CO)CO)nc2N)cc1I -11.5%, CCOC(=O)Cn1c(=O)oc2cc(S(=O)(=O)Nc3ccccc3F)ccc21 -17.2%, CCOC(=O)c1c(SCC(=O)Nc2cccc(C)c2C)nc(=O)[nH]c1C -20.1%
